Assay [1] has as its system RAW-Dual. Briefly: IRF Lucia reporter activity, fold change vs agonist alone; cytotoxicity flag (confluency mask): not cytotoxic; higher = enhanced IRF activity. A digest of the protocol: (§1)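 Library stock was pin-tooled at 50 nL into 384-well plates of RAW-Dual macrophages (50,000 cells/well, DMEM), followed 1 h later by a PRR agonist, and the cells were kept at 37 °C, 5% CO2. Supernatant collected after 20 hours was read for IRF by QuantiLuc luminescence and for NF-κB by QuantiBlue absorbance at 620 nm. Reporter activity is fold change over agonist-alone wells, and a well counted as cytotoxic when its IncuCyte confluency was below 70% of agonist controls in both mask sets.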

For assay [2], the system named is RAW-Dual. Nature of the assay: IRF Lucia reporter activity, fold change vs agonist alone; cytotoxicity flag (confluency mask): cytotoxic (confluency <70% of control); higher = enhanced IRF activity. A digest of the protocol: as §1
The test system of assay [3] is RAW-Dual. Nature of the assay: IRF Lucia reporter activity, fold change vs agonist alone; higher = enhanced IRF activity. The conditions noted are these: cytotoxicity flag (confluency mask): not cytotoxic, agonist: MPLA (TLR4) […]. A digest of the protocol:
as §1

[4] abbreviates: agonist: 3'3'-cGAMP (STING) 10 ug/mL.
Where [5] appears, read: library stock concentration (final ~1000-fold dilution): 10 mM.
The mark [6] stands for this setting: library stock concentration (final ~1000-fold dilution): 10 mM water.

SMILES strings stand for the structures. Over roughly 2,900 compounds, “IRF Lucia reporter activity, fold change vs agonist alone” has its median near 0.9; the highest 2% begin near 2.8. The list shows a part of the results.

We go through 28 compounds from the supplement of paper PMC10037445.

For the compound `CC(C)Cc1ccc([C@@H](C)C(=O)O)cc1` (library stock concentration (final ~1000-fold dilution): 10 mM), the entries for the “IRF Lucia reporter activity” value in assay [1] (setting [4]) and in assay [1] (agonist: LPS (TLR4) 0.1 ug/mL) were 0.953 and 1.08, respectively.
The matching figures for `O=C1C[C@@H](c2ccc(O)c(O)c2)Oc2cc(O)cc(O)c21` (library stock concentration (final ~1000-fold dilution): 10 mM): 0.101 and 1.01.
For the compound `CS(=O)(=O)O.O=C(NC1CCN(CCCCC2(C(=O)NCC(F)(F)F)c3ccccc3-c3ccccc32)CC1)c1ccccc1-c1ccc(C(F)(F)F)cc1` (library stock concentration (final ~1000-fold dilution): 10 mM), the “IRF Lucia reporter activity” value turned out to be 0.0237 in assay [2] (setting [4]) and 0.0947 in assay [2] (agonist: LPS (TLR4) 0.1 ug/mL).
On to `O=C(/C=C/c1cncc(F)c1)c1c(-c2ccccc2)c2cc(Cl)ccc2[nH]c1=O` (library stock concentration (final ~1000-fold dilution): 10 mM), for which the entries for the “IRF Lucia reporter activity” value in assay [2] (setting [4]) and in assay [2] (agonist: LPS (TLR4) 0.1 ug/mL) were 0.00558 and 0.0118, respectively.
On to `CC1COCCN1c1cc(-c2ccnn2C)c2ccnc(-c3ccn[nH]3)c2n1.Cl` (stereo not given) (library stock concentration (final ~1000-fold dilution): 10 mM), for which the “IRF Lucia reporter activity” value in assay [1] (setting [4]) was determined as 0.164; in assay [1] (agonist: LPS (TLR4) 0.1 ug/mL), 0.65.
For the compound `CCNC(=O)[C@]12CCC(C)(C)C[C@H]1[C@H]1C(=O)C=C3[C@@]4(C)C=C(C#N)C(=O)C(C)(C)[C@@H]4CC[C@@]3(C)[C@]1(C)CC2` (library stock concentration (final ~1000-fold dilution): 10 mM), the “IRF Lucia reporter activity” value in assay [1] (setting [4]) amounted to 0.00792; in assay [1] (agonist: LPS (TLR4) 0.1 ug/mL) it was 0.0127.
As to `COc1ccccc1Nc1nc(-c2sc(NC(C)=O)nc2C)cs1`, the “IRF Lucia reporter activity” value in assay [3] (setting [5]) turned out to be 0.515.
For `COc1ccccc1Nc1nc(-c2sc(NC(C)=O)nc2C)cs1` (library stock concentration (final ~1000-fold dilution): 10 mM), the “IRF Lucia reporter activity” value in assay [1] (setting [4]) was 0.217; in assay [1] (agonist: LPS (TLR4) 0.1 ug/mL), 0.684.
With `CCCC1CC(C(=O)NC(C(C)Cl)C2OC(SC)C(OP(=O)(O)O)C(O)C2O)N(C)C1` (stereo not given), in assay [3] (setting [6]), the “IRF Lucia reporter activity” value came to 1.42.
With `CCCC1CC(C(=O)NC(C(C)Cl)C2OC(SC)C(OP(=O)(O)O)C(O)C2O)N(C)C1` (stereo not given) (library stock concentration (final ~1000-fold dilution): 10 mM water), the “IRF Lucia reporter activity” value came out at 1.23 in assay [1] (setting [4]) and 0.95 in assay [1] (agonist: LPS (TLR4) 0.1 ug/mL).
The matching figures for `C#Cc1cccc(Nc2ncnc3cc(OCCOC)c(OCCOC)cc23)c1` (library stock concentration (final ~1000-fold dilution): 10 mM): 0.0457 and 0.382.
The matching figures for `COc1ccc(Cn2ccc3ccc(C(=O)NO)cc32)cc1` (library stock concentration (final ~1000-fold dilution): 10 mM): 0.242 and 0.899.
Turning to `COc1ccc(Cn2ccc3ccc(C(=O)NO)cc32)cc1`, the “IRF Lucia reporter activity” value in assay [3] (setting [5]) was 1.03.
Consider `NC(=O)c1cn(Cc2c(F)cccc2F)nn1` (library stock concentration (final ~1000-fold dilution): 10 mM), for which the “IRF Lucia reporter activity” value in assay [1] (setting [4]) amounted to 0.925; in assay [1] (agonist: LPS (TLR4) 0.1 ug/mL) it was 1.18.
As to `NC(=O)c1cn(Cc2c(F)cccc2F)nn1`, the “IRF Lucia reporter activity” value in assay [3] (setting [5]) was 1.03.
Regarding `Cc1cc(O)c2c(c1)C(=O)c1cccc(O)c1C2=O`, the “IRF Lucia reporter activity” value in assay [3] (setting [5]) is 0.877.
For `Cc1cc(O)c2c(c1)C(=O)c1cccc(O)c1C2=O` (library stock concentration (final ~1000-fold dilution): 10 mM), the “IRF Lucia reporter activity” value in assay [1] (setting [4]) came out at 0.928; in assay [1] (agonist: LPS (TLR4) 0.1 ug/mL), 1.02.
The like results for `COc1cc2c(N3CCN(C(=O)Nc4ccc(OC(C)C)cc4)CC3)ncnc2cc1OCCCN1CCCCC1` (library stock concentration (final ~1000-fold dilution): 2 mM) were, in that order, 0.702 and 0.934.
As for `COc1cc2c(N3CCN(C(=O)Nc4ccc(OC(C)C)cc4)CC3)ncnc2cc1OCCCN1CCCCC1`, in assay [3] (library stock concentration (final ~1000-fold dilution): 2 mM), the “IRF Lucia reporter activity” value is 1.02.
Consider `C=C1CCC2C(C)(CO)C(O)CCC2(C)C1C/C=C1\C=COC1=O` (stereo not given) (library stock concentration (final ~1000-fold dilution): 10 mM), for which the entries for the “IRF Lucia reporter activity” value in assay [1] (setting [4]) and in assay [1] (agonist: LPS (TLR4) 0.1 ug/mL) were 1.18 and 0.97, respectively.
For `C=C1CCC2C(C)(CO)C(O)CCC2(C)C1C/C=C1\C=COC1=O` (stereo not given), the “IRF Lucia reporter activity” value in assay [3] (setting [5]) came out at 1.17.
With `COc1ccc(C2(C#N)CCC(C(=O)O)CC2)cc1OC1CCCC1` (stereo not given) (library stock concentration (final ~1000-fold dilution): 10 mM), the “IRF Lucia reporter activity” value in assay [1] (setting [4]) is 0.983; in assay [1] (agonist: LPS (TLR4) 0.1 ug/mL) it was 0.852.
Take `COc1ccc(C2(C#N)CCC(C(=O)O)CC2)cc1OC1CCCC1` (stereo not given): the “IRF Lucia reporter activity” value in assay [3] (setting [5]) came out at 0.779.
On to `OB1OCc2cc(F)ccc21` (library stock concentration (final ~1000-fold dilution): 10 mM), for which the “IRF Lucia reporter activity” value in assay [1] (setting [4]) was 0.695; in assay [1] (agonist: LPS (TLR4) 0.1 ug/mL), 1.06.
Take `OB1OCc2cc(F)ccc21`: the “IRF Lucia reporter activity” value in assay [3] (setting [5]) turned out to be 0.869.
Still for that read-out and setting: the value for `O=c1ccc2cc(O)c(O)cc2o1` was 1.02.
Turning to `O=c1ccc2cc(O)c(O)cc2o1` (library stock concentration (final ~1000-fold dilution): 10 mM), the “IRF Lucia reporter activity” value was 0.737 in assay [1] (setting [4]) and 1.31 in assay [1] (agonist: LPS (TLR4) 0.1 ug/mL).
As to `NC(=O)c1ncn(C2OC(CO)C(O)C2O)c1O` (stereo not given), the “IRF Lucia reporter activity” value in assay [3] (setting [6]) worked out at 1.34.
